Laboratory results: PubChem BioAssay (NCI)
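Exposure lasted 48 hours, with cells grown in 96-well plates and compounds tested at five concentrations. The concentration for 50% growth inhibition is given as GI50.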 The source holds more than one record for some entries. They are shown here; other results are not. There may be further records. The records of an entry are repeated measurements (runs, samples, wells, individuals or studies). Records carry a tag for their origin. Letters hold for one entry only.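 TGI marks complete inhibition of growth.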

Assays:
Assay in all cases: NCI tumour cell line growth inhibition, 48 h
CCRF-CEM leukemia = tested on: CCRF-CEM leukemia
SR leukemia = tested on: SR leukemia
SK-MEL-5 melanoma = tested on: SK-MEL-5 melanoma
HL-60(TB) leukemia = tested on: HL-60(TB) leukemia

SMILES: COC(=O)/C=C/c1cc(OC)c2c(c1)C(C(=O)OC)C(c1ccc(O)c(OC)c1)O2 (centres undefined)
- TGI (CCRF-CEM leukemia): > 100 µM [sample A, mean of 2 tests] and > 100 µM [sample B, mean of 2 tests] and 9.51 µM [sample C, mean of 3 tests]
- GI50 (SR leukemia): 2.03 µM [sample A, mean of 2 tests] and 6.66 µM [sample B, 1 test] and 284 nM [sample C, mean of 2 tests]
- TGI (SK-MEL-5 melanoma): > 100 µM [sample A] and 19.8 µM [sample B] and 9.12 µM [sample C]
- TGI (HL-60(TB) leukemia): 3.81 µM [sample A, mean of 2 tests] and > 100 µM [sample B, mean of 2 tests] and 3.81 µM [sample C, mean of 2 tests]
